Reference: PubChem BioAssay AID463173 (ICCB-Longwood Screening Facility, Harvard Medical School, 2010)
Screen size: about 52,000 compounds; about 1,700 (3.3%) were called active. Rule as the data show it: active = survival mostly below about 52% (no sharp cut-off); inactive = mostly above about 56%. This is one part of the list.

System: Wild type
Experiment: S. aureus survival, RN4220 and DeltatarO strains – OD600, teichoic acid synthesis inhibitors, primary screen (AID 463173)
Conditions: S. aureus RN4220 wild type/DeltatarO growth, OD600, 18 h, stronger effect = lower value, screened at 18.75 µg/mL (by protocol)

Row | Compound | survival
1 | COc1ccccc1N1CCN(C(=O)Nc2cn(CC(C)C)c(=O)c3ccccc23)CC1 | inactive: 81%
2 | CCOCCCNC(=O)c1c(NC(=O)c2cc(=O)c3ccccc3o2)sc2c1CCC2 | inactive: 80%
3 | COc1cc2ccccc2cc1C(=O)Nc1ccc2oc(-c3ccc(Cl)cc3)nc2c1 | inactive: 91%
4 | COC(=O)c1ccc(NC(=O)Cn2c(=O)nc(-c3ccccc3)c3ccccc32)cc1 | inactive: 99%
5 | CCOC(=O)c1ccc(NC(=O)Cn2ncc3c(C)n(Cc4ccccc4F)c(C)c3c2=O)cc1 | inactive: 88%
6 | CCCCN(C)CC(O)Cn1cc(/C=C/C(=O)c2ccc(C)cc2)c2ccccc21 (stereo not given) | active: 15%
7 | COc1ccc(NC(=O)c2c(NCc3cccs3)sc3c2CCCC3)cc1 | inactive: 80%
8 | O=C(Nc1ccc(C(=O)OCc2cc(=O)n3c4c(sc3n2)CCCC4)cc1)c1ccc(Cl)cc1 | inactive: 81%
9 | CC(C)c1ccc(NC(=O)Nc2csc3c2CCCC3)cc1 | inactive: 25%
10 | Cc1ccc2c(=O)cc(C(=O)Nc3c(C(=O)Nc4cccc(Cl)c4)oc4ccccc34)oc2c1 | inactive: 83%
11 | O=C(c1ccc(Br)s1)N(Cc1cccnc1)c1nc2ccc(F)cc2s1 | inactive: 73%
12 | CCOc1ccccc1NC(=O)CN1C(=O)COc2ccc(S(=O)(=O)N3CCCCC3)cc21 | inactive: 96%
13 | Cc1ccc(N2C(=O)CSC23C(=O)N(CC(=O)NC2CCCCC2)c2ccccc23)cc1C (stereo not given) | inactive: 69%
14 | Cn1cc(C(c2ccccc2)c2ccc(Cl)s2)c2ccccc21 (stereo not given) | inactive: 94%
15 | Cc1ccc2c(c1)c1c(n2CC(O)CN2CCCCC2)C(=O)CCC1 (stereo not given) | inactive: 109%
16 | CCOC(=O)c1c(C)oc2ncnc(Nc3cc(Cl)ccc3OC)c12 | inactive: 84%
17 | CSc1ncc(C(=O)NCc2ccc(C)cc2)c(-c2ccccc2)n1 | active: -2%
18 | Cc1ccc(CNC(=O)C2CCN(S(=O)(=O)c3c(C)noc3/C=C/c3c(C)cc(C)cc3C)CC2)cc1 | inactive: 70%
19 | Cc1ccc2nc(COc3ccccc3NC(=O)COc3ccccc3Cl)cc(=O)n2c1 | inactive: 99%
20 | CCOc1ccccc1CNC(=O)CCCN1C(=O)c2cccnc2Oc2ccc(Cl)cc21 | inactive: 68%
21 | COc1ccccc1Cn1c(SCC(=O)C(C)(C)C)nc2ccccc2c1=O | inactive: 89%
22 | CCNC(=O)C1CCN(Cc2cc3ccccc3n2Cc2ccc(C)cc2)CC1 | inactive: 85%
23 | CCOC(=O)c1c(C)oc2nc(C)nc(N3CCN(c4ccc(OC)cc4)CC3)c12 | inactive: 68%

Row | Compound | survival
24 | O=C(c1cccn1-c1nnc(N2CCCCC2)s1)N1CCN(c2ccccc2)CC1 | active: -3%
25 | COC(=O)CN1C(C(=O)c2ccccc2)=C(OC(=O)c2ccc(C)cc2)c2ccccc2S1(=O)=O | inactive: 90%
26 | Clc1cccc(CSc2ccc(-c3cccs3)nn2)c1 | inactive: 112%
27 | N#Cc1ccc(CSc2nnc(-c3ccc(Br)cc3)o2)cc1 | inactive: 74%
28 | CCS(=O)(=O)c1ccccc1C(=O)N1CCN(c2nc3ccccc3s2)CC1 | inactive: 65%
29 | CCn1c(=O)c2sccc2n2c(CCC(=O)NCc3ccc(Cl)cc3)nnc12 | inactive: 75%
30 | Cc1oc(-c2cccc(Cl)c2)nc1CSCC(=O)NCc1ccccc1Cl | active: -1%
31 | CCOC(=O)C1CCN(C(=O)Cn2ncc3c4ccccc4n(C)c3c2=O)CC1 | inactive: 73%
32 | COc1ccc(CNC(=O)CCCN2C(=O)c3cccnc3Oc3ccc(Cl)cc32)cc1 | inactive: 80%
33 | Cc1ccc(-n2c(SCC(=O)Nc3ccc4c(c3)OCCO4)nc3c([nH]c4ccccc43)c2=O)cc1 | inactive: 120%
34 | Cc1cccc(NS(=O)(=O)c2nnc(NC(=O)c3cccc(C)c3)s2)c1 | inactive: 63%
35 | Cc1cccc(NC(=O)c2cc3c(=O)n4ccccc4nc3n2C)c1C | inactive: 84%
36 | CC(C)CCNc1ccc(-c2ccc(Cl)cc2)nn1 | inactive: 106%
37 | CCCCNC(=O)Cn1cnc2sc(C)c(S(=O)(=O)N3CCN(c4ccccc4OC)CC3)c2c1=O | inactive: 82%
38 | Cc1csc2nc(COC(=O)c3ccc(NC(=O)C(C)C)cc3)cc(=O)n12 | inactive: 120%
39 | CC(C)OCCCNC(=O)CN1C(=O)COc2ccc(S(=O)(=O)N3CCOCC3)cc21 | inactive: 74%
40 | COc1ccccc1NC(=O)c1ncoc1-c1ccco1 | inactive: 55%
41 | Cc1ccc(OCC(=O)Nc2sc3c(c2C(N)=O)CCCC3)c(C(C)(C)C)c1 | inactive: 68%
42 | COCCNC(=O)c1ccc(-c2nc(CN3CCc4ccccc43)c(C)o2)cc1 | inactive: 75%
43 | COc1cc(C(=O)Nc2sc(C(=O)N3CCOCC3)c(C)c2C#N)cc(OC)c1OC | inactive: 112%
44 | O=C(Cn1ncc2c3ccccc3n(Cc3ccccc3F)c2c1=O)NCCCc1ccccc1 | inactive: 91%
45 | CCOc1ccc2nc(NC(=O)c3ccccc3)sc2c1 | inactive: 58%
46 | Cc1ccc(C(=O)Nc2ccc(Br)cc2)cc1S(=O)(=O)NCc1ccccc1 | inactive: 89%

Row | Compound | survival
47 | CCOc1ccccc1C(=O)N(Cc1ccco1)Cc1ccccc1F | inactive: 87%
48 | COC(=O)c1ccccc1NC(=O)CSc1nc2nc(C)cc(C)n2n1 | inactive: 69%
49 | CCc1nc2ccc(C(=O)NCc3cccc(Br)c3)cc2nc1CC | inactive: 75%
50 | O=c1c(N2CCCCC2)csc2ccc(F)cc12 | inactive: 68%
51 | COc1ccc(-c2nc3ccccc3s2)cc1NC(=O)COc1cccc(C)c1 | inactive: 39%
52 | CCc1ccc(S(=O)(=O)Nc2cc3c(cc2N2CCOCC2)n(C)c(=O)c(=O)n3C)cc1 | active: 1%
53 | CCOc1ccc(NC(=O)C(=O)NCCc2ccccc2)cc1 | inactive: 84%
54 | CC(C)OC(=O)CSc1nnc(-c2ccc(O)cc2)o1 | inactive: 92%
55 | O=C(Cn1c(=O)n(CCCS(=O)(=O)C2CCCCC2)c(=O)c2ccccc21)Nc1ccc(F)c(Cl)c1 | inactive: 99%
56 | COc1ccc(C)cc1NC(=O)N1CCN(c2nnc(C)c3c(C)n(-c4ccccc4)nc23)CC1 | inactive: 69%
57 | Cc1cc(C)cc(NC(=O)CCCn2c(=O)c3cccn3c3ccccc32)c1 | inactive: 85%
58 | C=CCN1C(=O)CN=C1NCc1ccccc1 | inactive: 99%
59 | CCOc1ccc(NC(=O)CC2C(=O)N(c3ccccc3)C(=O)N2Cc2cccc(OC)c2)cc1 (stereo not given) | inactive: 75%
60 | COCCCNC(=O)c1nn(-c2ccc(C)cc2)c(=O)n(C)c1=O | inactive: 77%
61 | O=C(c1cnc(N2CCCCC2)c2ccccc12)N1CCN(c2cccc(Cl)c2)CC1 | inactive: 68%
62 | CCc1cccc(NC(=O)Cn2ncc3c([nH]c4ccc(C)cc43)c2=O)c1 | inactive: 100%
63 | CCOc1ccccc1NC(=O)CCc1c(C)nc2c3cccnc3nn2c1C | inactive: 80%
64 | COc1ccc(Cl)cc1C1CC(=O)Nc2cc3c(cc21)OCCO3 (stereo not given) | inactive: 85%
65 | CCCCNc1sc(S(=O)(=O)CCC)nc1S(=O)(=O)c1ccc(C)cc1 | inactive: 92%
66 | CCNC(=O)c1c2c(nc3ccccc13)C(=O)N(C1CCCCC1)C2 | inactive: 124%
67 | O=C(Cn1c(SCc2ccccc2F)nc2cccnc21)Nc1ccc(F)c(Cl)c1 | inactive: 72%
68 | CC1=C/C(=N/OC(=O)c2ccccc2)C=CC1=O | inactive: 105%
69 | Cc1ccc(CN2C(=O)c3ccccc3Sc3ccc(C(=O)NC4CCCC4)cc32)cc1 | inactive: 76%

Row | Compound | survival
70 | COc1cccc(C(=O)NCCc2csc(-c3cccc(F)c3)n2)c1OC | inactive: 70%
71 | Cc1ccc(C(=O)N2CCc3cc(CNC(=O)CCc4ccccc4)ccc32)cc1 | inactive: 127%
72 | O=C(NC1CC(=O)N(c2ccccc2)C1)c1ccco1 (stereo not given) | inactive: 74%
73 | CCc1cccc(NC(=O)CN(c2ccc(C)cc2)S(=O)(=O)c2cccs2)c1 | inactive: 85%
74 | O=C(Nc1ccc(F)cc1)Nc1ccc2snnc2c1 | inactive: 45%
75 | COc1cccc(CNC(=O)C(CC(C)C)NS(=O)(=O)c2ccc3c(c2)oc(=O)n3C)c1 (stereo not given) | inactive: 126%
76 | Cc1c2cnn(CC(=O)N3CCCCC3)c(=O)c2c(C)n1Cc1ccc(F)cc1 | inactive: 77%
77 | CCC1CCCCN1CCCNC(=O)c1[nH]c2ccccc2c1Sc1ccc(Cl)cc1 (stereo not given) | active: -1%
78 | CCOc1ccc(C(c2c(O)cc(C)n(CCOC)c2=O)N2CCN(c3ccccc3)CC2)cc1 (stereo not given) | inactive: 66%
79 | CCN(C(=O)CCS(=O)(=O)c1cc2[nH]c(=O)c(=O)[nH]c2cc1C)c1ccccc1 | inactive: 79%
80 | COc1ccc(-c2noc(N3CCC(C(=O)Nc4ccc(F)cc4Cl)CC3)n2)cc1 | inactive: 82%
81 | COc1ccccc1OCc1nnc(SCCN2CCOCC2)o1 | inactive: 102%
82 | Cc1ccc2c(c1)C(=O)OC(C(=O)Nc1ncc(Cc3ccc(C(C)C)cc3)s1)C2 (stereo not given) | inactive: 85%
83 | Cc1ccc(Cl)cc1NS(=O)(=O)c1ccc2oc(=O)c3ncn(C)c3c2c1 | inactive: 136%
84 | Cc1ccc(-c2cn3nc(N4CCCC(C(=O)Nc5ccc(F)cc5)C4)sc3n2)cc1 (stereo not given) | inactive: 83%
85 | Cc1ccc2sc(N3CCN(C(=O)CCS(=O)(=O)c4ccc(Cl)cc4)CC3)nc2c1C | inactive: 75%
86 | O=C(NCCc1ccc(F)cc1)C(=O)NCC(c1cccs1)S(=O)(=O)c1ccc(F)cc1 (stereo not given) | inactive: 74%
87 | CCOC(=O)/C(C#N)=C\c1cccn1C | inactive: 104%
88 | CCCN(CCC)C(=O)Cn1c(=O)n(-c2cccc(OC)c2)c(=O)c2c(C)c(C(=O)N(C)C)sc21 | inactive: 59%
89 | Cc1ccc(N(CC(=O)N2CCN(c3ccc(Cl)cc3)CC2)S(=O)(=O)c2c(C)nn(C)c2C)cc1 | inactive: 77%
90 | CCC(Sc1nc2ncccc2[nH]1)C(=O)Nc1cccc(OC)c1 (stereo not given) | inactive: 60%
